Assay results as given in paper PMC12529666.
The list shows a part of the results, in another mix than the full data. At the low end of the ranking, values are background and their order means little. The list shows a part of the results.

Columns and labels:
[1] = target: AGO2 WT (phosphosite mutant background) S387D + S824A + S828D + S831D + S834A (UniProt Q9UKV8); experiment: RNA Bind-n-Seq (nitrocellulose filter binding and sequencing); details: constant regions annealed to DNA blockers; guide miR-122 5' phosphate; 30 mM Tris pH 8.0, 100 mM potassium acetate, 2 mM magnesium acetate, 0.5 mM TCEP, 0.005% NP-40, 0.01 mg/ml yeast tRNA; 3 nM AGO2-miR-122, 100 nM RNA library …; high values mean tight binding
[2] = target: AGO2 F182del S387D + S824A + S828D + S831D + S834A + del182-182 (UniProt Q9UKV8); experiment: as above; details: constant regions annealed to DNA blockers; guide miR-122 5' phosphate; 30 mM Tris pH 8.0, 100 mM potassium acetate, 2 mM magnesium acetate, 0.5 mM TCEP, 0.005% NP-40, 0.01 mg/ml yeast tRNA; 3 nM AGO2-miR-122, 100 nM RNA library …; high values mean tight binding

Sequence	binding signal (fold enrichment over input) [1]	binding signal (fold enrichment over input) [2]
GAGUUCUACAGUCCGACGAUCCCAACAUAUCUCGCACCUGGAAUUCUCGGGUGCCAA / UGGAGUGUGACAAUGGUGUUUG / GATCGTCGGACTGTAGAACTC / TTGGCACCCGAGAATTCCA	0.0807	0.0512
GAGUUCUACAGUCCGACGAUCCCAACAUACCUCGCACCUGGAAUUCUCGGGUGCCAA / UGGAGUGUGACAAUGGUGUUUG / GATCGTCGGACTGTAGAACTC / TTGGCACCCGAGAATTCCA	0.0876	0.0641
GAGUUCUACAGUCCGACGAUCCCAACGUAUUUCACACCUGGAAUUCUCGGGUGCCAA / UGGAGUGUGACAAUGGUGUUUG / GATCGTCGGACTGTAGAACTC / TTGGCACCCGAGAATTCCA	0.136	0.805
GAGUUCUACAGUCCGACGAUCCCAACAUAUUCCGCACCUGGAAUUCUCGGGUGCCAA / UGGAGUGUGACAAUGGUGUUUG / GATCGTCGGACTGTAGAACTC / TTGGCACCCGAGAATTCCA	0.0864	0.0511
GAGUUCUACAGUCCGACGAUCCCAACACACCUUACACCUGGAAUUCUCGGGUGCCAA / UGGAGUGUGACAAUGGUGUUUG / GATCGTCGGACTGTAGAACTC / TTGGCACCCGAGAATTCCA	0.164	1.89
GAGUUCUACAGUCCGACGAUCCCAACGCGUCCUACACCUGGAAUUCUCGGGUGCCAA / UGGAGUGUGACAAUGGUGUUUG / GATCGTCGGACTGTAGAACTC / TTGGCACCCGAGAATTCCA	0.123	0.0709
GAGUUCUACAGUCCGACGAUCCCAACGCGCUCUACACCUGGAAUUCUCGGGUGCCAA / UGGAGUGUGACAAUGGUGUUUG / GATCGTCGGACTGTAGAACTC / TTGGCACCCGAGAATTCCA	0.108	0.0671
GAGUUCUACAGUCCGACGAUCCCAACAUGCCCUACACCUGGAAUUCUCGGGUGCCAA / UGGAGUGUGACAAUGGUGUUUG / GATCGTCGGACTGTAGAACTC / TTGGCACCCGAGAATTCCA	0.0977	0.0557
GAGUUCUACAGUCCGACGAUCCCAACACAUCUUGCACCUGGAAUUCUCGGGUGCCAA / UGGAGUGUGACAAUGGUGUUUG / GATCGTCGGACTGTAGAACTC / TTGGCACCCGAGAATTCCA	0.0934	0.0749
GAGUUCUACAGUCCGACGAUCCCAACGUGUCCCACACCUGGAAUUCUCGGGUGCCAA / UGGAGUGUGACAAUGGUGUUUG / GATCGTCGGACTGTAGAACTC / TTGGCACCCGAGAATTCCA	0.125	0.268
GAGUUCUACAGUCCGACGAUCCCAACGCACUUCACACCUGGAAUUCUCGGGUGCCAA / UGGAGUGUGACAAUGGUGUUUG / GATCGTCGGACTGTAGAACTC / TTGGCACCCGAGAATTCCA	0.149	0.82
GAGUUCUACAGUCCGACGAUCCCAACACAUUCUACACCUGGAAUUCUCGGGUGCCAA / UGGAGUGUGACAAUGGUGUUUG / GATCGTCGGACTGTAGAACTC / TTGGCACCCGAGAATTCCA	0.107	0.309
GAGUUCUACAGUCCGACGAUCCCAACGCACCUCGCACCUGGAAUUCUCGGGUGCCAA / UGGAGUGUGACAAUGGUGUUUG / GATCGTCGGACTGTAGAACTC / TTGGCACCCGAGAATTCCA	0.0966	0.0977
GAGUUCUACAGUCCGACGAUCCCAACGCACUUCGCACCUGGAAUUCUCGGGUGCCAA / UGGAGUGUGACAAUGGUGUUUG / GATCGTCGGACTGTAGAACTC / TTGGCACCCGAGAATTCCA	0.0901	0.0595
GAGUUCUACAGUCCGACGAUCCCAACGCAUCCCACACCUGGAAUUCUCGGGUGCCAA / UGGAGUGUGACAAUGGUGUUUG / GATCGTCGGACTGTAGAACTC / TTGGCACCCGAGAATTCCA	0.116	0.282
GAGUUCUACAGUCCGACGAUCCCAACGUGUCCCGCACCUGGAAUUCUCGGGUGCCAA / UGGAGUGUGACAAUGGUGUUUG / GATCGTCGGACTGTAGAACTC / TTGGCACCCGAGAATTCCA	0.0896	0.038
GAGUUCUACAGUCCGACGAUCCCAACGCGUUUCGCACCUGGAAUUCUCGGGUGCCAA / UGGAGUGUGACAAUGGUGUUUG / GATCGTCGGACTGTAGAACTC / TTGGCACCCGAGAATTCCA	0.102	0.0359
GAGUUCUACAGUCCGACGAUCCCAACACGCCCUGCACCUGGAAUUCUCGGGUGCCAA / UGGAGUGUGACAAUGGUGUUUG / GATCGTCGGACTGTAGAACTC / TTGGCACCCGAGAATTCCA	0.0958	0.0552
GAGUUCUACAGUCCGACGAUCCCAACGCACUCUACACCUGGAAUUCUCGGGUGCCAA / UGGAGUGUGACAAUGGUGUUUG / GATCGTCGGACTGTAGAACTC / TTGGCACCCGAGAATTCCA		0.786
GAGUUCUACAGUCCGACGAUCCCAACACAUCUCACACCUGGAAUUCUCGGGUGCCAA / UGGAGUGUGACAAUGGUGUUUG / GATCGTCGGACTGTAGAACTC / TTGGCACCCGAGAATTCCA	0.206	2.74

Sequence	binding signal (fold enrichment over input) [1]	binding signal (fold enrichment over input) [2]
GAGUUCUACAGUCCGACGAUCCCAACAUACUCCACACCUGGAAUUCUCGGGUGCCAA / UGGAGUGUGACAAUGGUGUUUG / GATCGTCGGACTGTAGAACTC / TTGGCACCCGAGAATTCCA		8.59
GAGUUCUACAGUCCGACGAUCCCAACAUGCUCCGCACCUGGAAUUCUCGGGUGCCAA / UGGAGUGUGACAAUGGUGUUUG / GATCGTCGGACTGTAGAACTC / TTGGCACCCGAGAATTCCA	0.186	1.55
GAGUUCUACAGUCCGACGAUCCCAACAUAUUUCACACCUGGAAUUCUCGGGUGCCAA / UGGAGUGUGACAAUGGUGUUUG / GATCGTCGGACTGTAGAACTC / TTGGCACCCGAGAATTCCA	0.141	1.09
GAGUUCUACAGUCCGACGAUCCCAACACGCCUCGCACCUGGAAUUCUCGGGUGCCAA / UGGAGUGUGACAAUGGUGUUUG / GATCGTCGGACTGTAGAACTC / TTGGCACCCGAGAATTCCA	0.095	0.0915
GAGUUCUACAGUCCGACGAUCCCAACAUACUUCACACCUGGAAUUCUCGGGUGCCAA / UGGAGUGUGACAAUGGUGUUUG / GATCGTCGGACTGTAGAACTC / TTGGCACCCGAGAATTCCA		1.33
GAGUUCUACAGUCCGACGAUCCCAACACGCUCUGCACCUGGAAUUCUCGGGUGCCAA / UGGAGUGUGACAAUGGUGUUUG / GATCGTCGGACTGTAGAACTC / TTGGCACCCGAGAATTCCA	0.132	0.149
GAGUUCUACAGUCCGACGAUCCCAACGUACCUCACACCUGGAAUUCUCGGGUGCCAA / UGGAGUGUGACAAUGGUGUUUG / GATCGTCGGACTGTAGAACTC / TTGGCACCCGAGAATTCCA	0.149	1.57
GAGUUCUACAGUCCGACGAUCCCAACGCACUCCGCACCUGGAAUUCUCGGGUGCCAA / UGGAGUGUGACAAUGGUGUUUG / GATCGTCGGACTGTAGAACTC / TTGGCACCCGAGAATTCCA		69.5
GAGUUCUACAGUCCGACGAUCCCAACACAUUUUGCACCUGGAAUUCUCGGGUGCCAA / UGGAGUGUGACAAUGGUGUUUG / GATCGTCGGACTGTAGAACTC / TTGGCACCCGAGAATTCCA	0.0851	0.0905
GAGUUCUACAGUCCGACGAUCCCAACGUACCUUGCACCUGGAAUUCUCGGGUGCCAA / UGGAGUGUGACAAUGGUGUUUG / GATCGTCGGACTGTAGAACTC / TTGGCACCCGAGAATTCCA	0.0913	0.0432
GAGUUCUACAGUCCGACGAUCCCAACGCAUUCUGCACCUGGAAUUCUCGGGUGCCAA / UGGAGUGUGACAAUGGUGUUUG / GATCGTCGGACTGTAGAACTC / TTGGCACCCGAGAATTCCA	0.0933	0.0388
GAGUUCUACAGUCCGACGAUCCCAACAUAUUCUACACCUGGAAUUCUCGGGUGCCAA / UGGAGUGUGACAAUGGUGUUUG / GATCGTCGGACTGTAGAACTC / TTGGCACCCGAGAATTCCA	0.115	0.0701
GAGUUCUACAGUCCGACGAUCCCAACAUACCCCGCACCUGGAAUUCUCGGGUGCCAA / UGGAGUGUGACAAUGGUGUUUG / GATCGTCGGACTGTAGAACTC / TTGGCACCCGAGAATTCCA	0.0919	0.058
GAGUUCUACAGUCCGACGAUCCCAACGCGUUCCGCACCUGGAAUUCUCGGGUGCCAA / UGGAGUGUGACAAUGGUGUUUG / GATCGTCGGACTGTAGAACTC / TTGGCACCCGAGAATTCCA	0.112	0.0455
GAGUUCUACAGUCCGACGAUCCCAACGUACCCUGCACCUGGAAUUCUCGGGUGCCAA / UGGAGUGUGACAAUGGUGUUUG / GATCGTCGGACTGTAGAACTC / TTGGCACCCGAGAATTCCA	0.0887	0.0467
GAGUUCUACAGUCCGACGAUCCCAACACACCUCGCACCUGGAAUUCUCGGGUGCCAA / UGGAGUGUGACAAUGGUGUUUG / GATCGTCGGACTGTAGAACTC / TTGGCACCCGAGAATTCCA	0.112	0.256
GAGUUCUACAGUCCGACGAUCCCAACGCGCUUCGCACCUGGAAUUCUCGGGUGCCAA / UGGAGUGUGACAAUGGUGUUUG / GATCGTCGGACTGTAGAACTC / TTGGCACCCGAGAATTCCA	0.0946	0.0396
GAGUUCUACAGUCCGACGAUCCCAACACACUCCACACCUGGAAUUCUCGGGUGCCAA / UGGAGUGUGACAAUGGUGUUUG / GATCGTCGGACTGTAGAACTC / TTGGCACCCGAGAATTCCA		116
GAGUUCUACAGUCCGACGAUCCCAACAUAUUUUGCACCUGGAAUUCUCGGGUGCCAA / UGGAGUGUGACAAUGGUGUUUG / GATCGTCGGACTGTAGAACTC / TTGGCACCCGAGAATTCCA	0.0998	0.0519
